Drawing on the RNAGym collection of RNA variant scans (doi:10.7554/elife.90254), this text covers self-cleavage for 83 variants.

B1: OR4K15 (parent)
chain: GUUAACGGUCAUAGGCCAUGGAAACUAGGAGCACCAUUUCGCUGCCAGUGAAGAAAUGAACAAAGAAAAUCUGGGCCAGGCAGGCAUCAAAAGAAAUAGUCUUGCGCUCAACCAGAAAGUCUGUAAUCAUUUUAAGGGUA

The source gives no read counts; variants with many changes may rest on few reads.

The variants in the series derive from B1. As to the kind of experiment: self-cleavage, relative activity (ratio to wild type); higher = more cleavage; in vitro, sequencing; the parent is a self-cleaving ribozyme.
For U38C G41A C45U A60G U100C, the self-cleavage turned out to be 2.74. The same measure for U38C A59G A66G U132C: 1.52; for U38C A60G A95U A111U: 0.1; for U37C U43C A135U: 1.52. Consider U37C A51G A52G A60G, for which the self-cleavage amounted to 1.73. On to U37C A52G U108C A114G, for which the self-cleavage stood at 0. U37C U38G A95G: the self-cleavage came out at 1.75. As for U37C U124C C128U, the figure is 1.36; as for U37C A118G U124C, 1.81; as for A36U U49C U87C U100C A126U, 1.72. As for U37C A47U A90G A95G, the figure is 0.28.

Regarding U37C U103A A129G U133C, the self-cleavage is 0.78. For the variant U37C U39C A52C A64G U72C A95G, the self-cleavage stood at 0.3. Consider U37C A52U A67G A82G A91G C101U U130C, for which the self-cleavage was found to be 0.01. On to U37C U43A U72A U87A A92G, for which the self-cleavage came to 0.14. Consider U37A A52G A78G, for which the self-cleavage was 0.3. The same measure for U37C C112A U132C A135G: 0.02; for U38C A135G U139C: 0.23; for U38C A116G U133C: 1.58.

As for A36U A82U A94G, the self-cleavage amounted to 0.06. The same measure for U37C A47U A111U U127C: 0.01. Turning to U37C U39C A68G U132A, the self-cleavage was 1.43. As for U38A U39C C85U, the figure is 0.84; as for U38C A54G U120C, 1.04.

On to U37C A59G U70C U127G A134U, for which the self-cleavage is 0.32. For U38C A60G G93A, the self-cleavage was determined as 1.07. The same measure for U37C A55G A116G: 1.5.

For the variant U37C A54G A129G, the self-cleavage came out at 1.53. Regarding A36U A66G G104A A116G, the self-cleavage was determined as 0.01. As for U37C A47G A140G, the self-cleavage was 1.3. The same measure for U37C A51U U72A A140G: 0.19; for U38C A51G A91G G106U A135G: 0.02. As for U37C U57A A116G, the figure is 0.18; as for U38C A67G U127C, 0.7. In the case of U37A A62G U122C, the self-cleavage amounted to 1.79.

As for U37G A59G A129G, the self-cleavage came to 1.32. Regarding U37C A91G U127C, the self-cleavage worked out at 1.13.

Turning to U37C A59U A117G, the self-cleavage turned out to be 2.14. In the case of U38C A60G A118G U132A, the self-cleavage stood at 0.48.

For U38C A51U A56G U100A, the self-cleavage was determined as 0.3. As for U37C U57C A62U A82G A118G, the figure is 0.14; as for U38C A63G A86U, 2.44; as for U37C A67U U102C, 2.07.

With U38C A69G U72C, the self-cleavage came to 0.21. As for U37C A117G U122C, the figure is 1.41. As for A36U C88U U103C A111U, the figure is 0.19; as for U38C A78U U108C, 0.02; as for U37A A90U A98C G99A, 0.93.

For the variant U38C A78G U132A, the self-cleavage stood at 0.36. The same measure for U37C U43A A51G A67U: 1.92.

On to U38C A90U A135G, for which the self-cleavage was 1.7. Consider U37C A92U A140U, for which the self-cleavage was found to be 1.48. Regarding U38C A96G U127C, the self-cleavage came out at 1.22.

U38C A66G A78U: the self-cleavage came out at 0.21.

On to U37C U43C U127C, for which the self-cleavage is 0.84. For U38C C40U A92G U97C U127C, the self-cleavage turned out to be 0.34. The same measure for U38C A51G A78G U87C A92G: 0.25; for U38C A52G A62G: 1.13; for U37C A66G U103C: 1.32. The same measure for U37C A67G A116G: 0.71; for U37C A51U A134U: 1.39. The same measure for U37C U100G A135G: 2.56. In the case of U37C A92G U97C U120C, the self-cleavage was 0.34.

Take U38C A60G U100C: the self-cleavage is 2.3. Take U37C A55G A117G: the self-cleavage turned out to be 1.37. As for U38C A62G G74U U131C, the self-cleavage is 0.12. With A36U A67G C77U A110G A118G, the self-cleavage came out at 0.23.

For U37C G41A U49A U103C A140U, the self-cleavage worked out at 0.97. U37C U38C A82G A98G: the self-cleavage was determined as 0.23. For U38C A51G U130C, the self-cleavage was found to be 1.06. Regarding U37C A60G A114G, the self-cleavage amounted to 0.27. With U37G A59G A96G A111G, the self-cleavage stood at 0.01. As for U38C G41A C42U U130C, the figure is 1.23; as for U38A C88U A129G, 1.87. With U38C A64G A110G U122A, the self-cleavage worked out at 0.1. The same measure for A36U G79A A86G A90G: 0.08; for U37C A64U A66U G83U A140G: 0.51. On to U38C A59G A118G, for which the self-cleavage came out at 0.37.

Consider U37C A64U U122A A135G, for which the self-cleavage worked out at 0.79. Regarding U38C A47C A54U, the self-cleavage is 1.64. In the case of U37C A52G G53A U131C U132C, the self-cleavage was 0.32. As for U37C A54G A69G A114G U127C, the figure is 0.2.

Regarding U38C A64G U130C U132C A135C, the self-cleavage amounted to 1.07.
